# Laboratory results: publication PMC6212790
# This is one part of the list. At the low end of the ranking the order means little.
# Biological target: T1, GST-Rok (full length) (UniProt O34857)
# T1 sequence: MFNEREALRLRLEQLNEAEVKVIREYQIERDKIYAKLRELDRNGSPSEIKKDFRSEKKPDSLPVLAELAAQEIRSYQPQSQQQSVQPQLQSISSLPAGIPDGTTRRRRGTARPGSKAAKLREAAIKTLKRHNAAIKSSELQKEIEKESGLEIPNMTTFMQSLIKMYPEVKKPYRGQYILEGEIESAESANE
# Assay: protein binding microarray;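 note: rank score from −0.5 (least bound) to 0.5 (best bound)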
# Details: Rok is a gene silencer of Bacillus subtilis; high values mean tight binding; most listed sequences are background and not binding sites; double strand, one strand shown
row,Sequence,binding signal [E-score]
1,GAGAGCCA,-0.156
2,AAGCGTAC,-0.0898
3,AATAACCG,0.218
4,GATTTCTA,0.3
5,CATGCTCA,-0.172
6,CGACGGGC,-0.306
7,CAGCATTC,0.0234
8,AACACGGA,0.18
9,CGGGATAG,-0.0108
10,ACAGCACT,-0.178
11,CCTGCATC,0.0324
12,CAGCGTGA,-0.12
13,GCGTTTTA,0.117
14,GACAACGC,-0.287
15,ACCCAGTA,0.0523
16,GCGACTGA,0.0748
17,AACTAATT,0.32
18,CATGACAC,-0.00451
19,GATATGTA,0.296
20,CTATGTTC,-0.0285
21,GTACCATA,0.339
22,ACTCTCCC,-0.284
23,GCCCATCC,-0.148
24,CATAACTA,0.312
25,CCGGCCCG,-0.399

row,Sequence,binding signal [E-score]
1,TAAGCACA,0.0191
2,CCTCTGAA,-0.125
3,ACTTTATA,0.206
4,AAAAGTTC,0.114
5,GCGGACGA,-0.191
6,CTAACATA,0.186
7,CGCGACGA,-0.121
8,GATACTGA,0.109
9,ACCGGAGC,-0.212
10,CCACCGCC,-0.0582
11,CTTTGCGC,0.085
12,AGAACACA,0.0687
13,ATCCCCAG,-0.303
14,AATTCGCT,0.0509
15,TCCGCTCA,-0.163
16,AACCGCGC,-0.146
17,TCTCAGCA,-0.0372
18,GGAGTTCA,-0.00501
19,GGAATGAA,-0.117
20,GTTCACCA,0.0397
21,TAGGCATA,0.235
22,GCAGGGGA,-0.319
23,ACTCCAAG,-0.0862
24,CTGGGATC,-0.273
25,CACAGGTG,-0.275

row,Sequence,binding signal [E-score]
1,GCGCTTAA,-0.00677
2,TAGAATCA,0.253
3,CAAGACAA,-0.0166
4,CCACTGGC,-0.258
5,GAGAGGGA,-0.2
6,GCTCCCAA,-0.324
7,AATGTTCA,0.318
8,AGTTAAGG,0.07
9,TCACGCCA,-0.0759
10,GAACACGC,-0.13
11,AATCACCT,0.0136
12,AGTCGTTG,-0.152
13,GACGGAAA,0.0694
14,CTCGGCTC,-0.334
15,CTCCACCA,-0.0837
16,TCTTTCCA,-0.0837
17,AGCCGCAA,-0.265
18,TCCATGGA,0.0494
19,CTAACGGC,-0.228
20,ATCAGAGG,-0.0388
21,ATTATTGG,0.122
22,TCTGGACA,-0.0137
23,AAGACCTT,-0.148
24,ATCGTCGC,0.00745
25,CAAGCGCA,-0.0982

row,Sequence,binding signal [E-score]
1,GGGAGTAA,-0.218
2,AGCTTACG,-0.0197
3,CGATCAGA,-0.0547
4,GCTTTAGA,0.0315
5,GGGTACAA,0.0328
6,CATAAGAC,0.0735
7,GGCCGACC,-0.303
8,CCACCACG,-0.243
9,AGCTTATG,-0.0757
10,GAATATAC,0.306
11,AGTGAGGC,-0.116
12,CAAGGGTC,-0.201
13,GATCGATC,0.136
14,AATTCAGG,0.0372
15,CTAGTTAC,0.418
16,AAAGCTTG,-0.0609
17,ATCAGCTC,0.014
18,TTAAGAAA,0.0666
19,AGTCCCTC,-0.272
20,AACCCAGC,-0.136
21,CGGGGCAA,-0.152
22,ACGAGTGA,0.0885
23,GGTAGACA,0.0655
24,AGATAGCG,0.22
25,CACCACTA,0.0926

row,Sequence,binding signal [E-score]
1,AAAAGTGG,0.0883
2,GCGGGCAA,-0.178
3,AAACGATA,0.119
4,CATTCAAG,-0.00822
5,GTGAGTGA,0.115
6,AACAAACT,0.0328
7,CTCATCAG,0.0181
8,AACGCGCG,-0.0168
9,CGAGACCG,-0.288
10,GAACTAAA,0.23
11,TCCTAGCA,-0.0486
12,AAACTGCC,-0.0758
13,CGGGTAAA,-0.0723
14,GAAGCTTA,0.0154
15,ATAGACGG,-0.147
16,CAGAAACG,0.0372
17,GATAGCCC,-0.225
18,ACCGACGC,-0.109
19,CAATCGTG,-0.0317
20,CGCAAGCA,-0.18
21,CCCTAAAA,-0.201
22,CCGACTCG,-0.125
23,ACTCCTAT,0.122
24,CCCGACAG,-0.119
25,TGGGAAAA,-0.0408

row,Sequence,binding signal [E-score]
1,AGATCCTG,0.0544
2,AAGACAGA,-0.00818
3,CATATACG,0.261
4,CATTCTCA,0.0256
5,GAGGAACA,-0.272
6,CGAGGACC,-0.0226
7,CTATCTTA,0.182
8,ACGCTAAA,0.119
9,CGTCAAGA,-0.143
10,CAATACCC,-0.0924
11,CTCAACGA,-0.0344
12,CGCACACG,-0.218
13,TATCTGAA,0.137
14,TCGGATAA,0.0263
15,TAGTTCAA,0.152
16,GCTCTGCC,-0.392
17,AGCGTGAG,-0.0889
18,AAATGAAT,0.162
19,CTTGCCTC,-0.0866
20,ACTTCTGC,0.0927
21,ACCGATCC,-0.198
22,TGTTACAA,0.149
23,CACTGTGC,0.0146
24,ACGGTGGA,-0.0364
25,AAGTGCCC,-0.205

row,Sequence,binding signal [E-score]
1,AGGCCTAA,-0.171
2,GCGTCATA,0.0323
3,GTCATTAA,-0.131
4,GCCTGCTA,-0.148
5,AACCGGTT,0.00681
6,TGAATGCA,-0.082
7,GTTCTTTA,-0.182
8,CAGCTAGG,-0.26
9,CTATTTTA,0.325
10,ATTAGGCA,0.014
11,GAGCGCCC,-0.362
12,GGGATTAC,-0.141
13,ATTTTATG,0.251
14,CGACTCTA,-0.135
15,AGTTACCG,0.0981
16,CTCTTTGC,-0.326
17,AAAGCCGA,0.118
18,CGCAGACG,-0.361
19,CTGTAAGC,-0.197
20,ACGGGGAA,-0.142
21,TACTAGGA,0.183
22,CATCATCC,-0.0759
